# Assay results taken from article PMC4336329 (PLoS ONE, 2015).
# Among all 310,000 compounds or so, about 2,200 (0.71%) showed an effect of 50% or more. The effect is printed as a negative number. The list shows a part of the results.
# Molecular target: human ether-à-go-go-related gene (hERG) potassium channel (human, UniProt Q12809)
# Assay: primary screen, population patch clamp on CHO cells stably expressing hERG
# human ether-à-go-go-related gene (hERG) potassium channel, sequence (Q12809 whole entry, looked up): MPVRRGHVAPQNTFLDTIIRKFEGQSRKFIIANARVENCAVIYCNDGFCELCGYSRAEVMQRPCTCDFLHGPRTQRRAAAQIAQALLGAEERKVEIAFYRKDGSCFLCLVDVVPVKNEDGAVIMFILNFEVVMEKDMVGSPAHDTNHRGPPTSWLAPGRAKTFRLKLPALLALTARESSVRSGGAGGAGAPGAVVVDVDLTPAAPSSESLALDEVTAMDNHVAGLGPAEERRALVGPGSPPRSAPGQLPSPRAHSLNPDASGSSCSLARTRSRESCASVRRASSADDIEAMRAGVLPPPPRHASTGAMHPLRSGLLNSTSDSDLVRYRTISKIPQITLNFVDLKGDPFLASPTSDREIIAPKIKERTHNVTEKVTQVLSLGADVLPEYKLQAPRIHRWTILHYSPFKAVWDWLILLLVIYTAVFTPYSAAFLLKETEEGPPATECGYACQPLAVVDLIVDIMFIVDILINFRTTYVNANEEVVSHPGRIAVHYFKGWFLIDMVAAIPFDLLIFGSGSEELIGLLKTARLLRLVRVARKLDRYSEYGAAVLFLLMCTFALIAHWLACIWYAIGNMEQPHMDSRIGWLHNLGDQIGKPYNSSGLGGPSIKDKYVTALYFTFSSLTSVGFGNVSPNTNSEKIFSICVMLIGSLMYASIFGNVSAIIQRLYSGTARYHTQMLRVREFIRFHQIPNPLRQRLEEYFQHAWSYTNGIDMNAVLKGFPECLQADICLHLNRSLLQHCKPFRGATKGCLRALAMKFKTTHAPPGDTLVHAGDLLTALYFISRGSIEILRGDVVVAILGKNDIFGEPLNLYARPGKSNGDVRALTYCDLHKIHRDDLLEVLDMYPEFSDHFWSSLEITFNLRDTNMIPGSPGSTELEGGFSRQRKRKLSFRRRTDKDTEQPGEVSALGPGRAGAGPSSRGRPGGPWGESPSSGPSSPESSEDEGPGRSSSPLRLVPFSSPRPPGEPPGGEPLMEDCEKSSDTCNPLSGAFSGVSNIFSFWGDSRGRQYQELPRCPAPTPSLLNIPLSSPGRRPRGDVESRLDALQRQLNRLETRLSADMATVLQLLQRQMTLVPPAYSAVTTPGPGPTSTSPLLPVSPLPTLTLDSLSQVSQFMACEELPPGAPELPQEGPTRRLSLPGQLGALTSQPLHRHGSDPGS
row,SMILES,"hERG current change (%, negative = inhibition) at 1uM [%]"
1,COc1ccc2[nH]c3c(NCCN4CCCCC4)ncnc3c2c1,-33.2
2,COC(CNC(=O)C1CCC(CNS(=O)(=O)c2c(C)cc(C)cc2C)CC1)OC (stereo not drawn),1.29
3,O=C(NCCCN1CCOCC1)c1ccccc1-c1ccccc1,6.23
4,Cc1cccc(C)c1NC(=O)CN(C)C(=O)Cn1c(=O)cnc2ccccc21,18.5
5,O=C(Nc1ccc(S(=O)(=O)Nc2nccs2)cc1)c1cc(=O)[nH]c2ccccc12,11.9
6,O=[N+]([O-])c1ccc(N2CCNCC2)c(S(=O)(=O)N2CCOCC2)c1,28.6
7,CC(=O)Nc1nc(NC(=O)C(Cl)(Cl)Cl)n(-c2ccccc2)n1,12.2
8,O=C(c1ccncc1)N1CCN(S(=O)(=O)c2cccc(Cl)c2)CC1,9
9,CCc1ccc(NC(=O)C(C)OC(=O)CC(NC(C)=O)c2ccccc2)cc1 (stereo not drawn),14.4
10,COC(=O)c1c(C)oc2ccc(N(C(=O)c3ccncc3)S(=O)(=O)c3ccc(C)cc3C)cc12,11.8
11,O=C(CN1CCCC1)Nc1ccc(S(=O)(=O)N2CCCCC2)cc1,13.5
12,O=c1ccnc(S/C=C/c2ccccc2)[nH]1,-5.55
13,CCCCCCCCCCCCN1[C@@H](CC(C)=O)c2cc(C(F)(F)F)ccc2S1(=O)=O,23
14,CCOc1ccc2nc(N(CCN(CC)CC)C(=O)c3ccc([N+](=O)[O-])cc3)sc2c1.Cl,-36.2
15,Cn1c(=O)c2c(ncn2CC(=O)OCC(=O)NNC(=O)c2ccc(Cl)cc2)n(C)c1=O,5.67
16,Cc1ccc(C)c(NC(=O)c2cnn3ccccc23)c1,10.9
17,Cc1ccc(/C=N/N2CCN(C3c4ccccc4-c4ccccc43)CC2)s1,7.81
18,O=C(NC1CCCCC1)N1CCN(c2ccccc2)CC1,2.28
19,O=C(NNC(=O)c1ccco1)Nc1ccccc1,14.7
20,CC(C)OC(=O)NCCOC(=O)Nc1ccc(Cl)c(Cl)c1,4.66
21,O.O=CC(=O)c1ccccc1,15.9
22,COc1ccc(C2C(C(=O)Nc3cc(OC)c(OC)c(OC)c3)c3ccccc3C(=O)N2C)cc1OC (stereo not drawn),5.82

row,SMILES,"hERG current change (%, negative = inhibition) at 1uM [%]"
1,O=C1NC[C@@H](Cc2cccc3ccccc23)N(CCCCC2CCCCC2)C1=O,12.8
2,CCOC(=O)C(=Cc1ccc(-c2ccsc2C(=O)OC)o1)C(=O)OCC,-3.24
3,CCCc1cc(=O)oc2cc(OC(C)C(=O)NC3CC(C)(C)NC(C)(C)C3)ccc12 (stereo not drawn),-3.14
4,COc1ccc(Br)cc1C(=O)Nc1ccc(O)cc1,9.94
5,COc1ccccc1-c1c(C)nn2c(N3CCC(C(N)=O)CC3)cc(C)nc12,12.6
6,Cc1nnc(NC(=O)CSc2nnc(CCc3nc4ccccc4[nH]3)n2C)s1,4.25
7,Cl.c1ccc2c3c([nH]c2c1)CCNC3,8.87
8,Cl.O=[N+]([O-])c1ccccc1OCC(O)CNC1CCCC1 (stereo not drawn),13
9,Cc1ccc2c(C)c(C(=O)NCc3ccc(S(N)(=O)=O)cc3)oc2c1C,9.45
10,O=C(c1ccccc1)c1sc(N2CCCCCC2)nc1-c1ccccc1,8.54
11,CN(C)c1ccc(/C=N/N2CCN(c3ccccn3)CC2)cc1,11
12,CC(C)(C)c1ccc(/C([O-])=C(/C(=S)NCc2ccco2)[n+]2ccccc2)cc1,8.38
13,Cc1ccc(C2=NS(=O)(=O)N(C)C(C(=O)Nc3cc(C)n(CC(=O)N4CCC(C)CC4)n3)=C2)cc1,14
14,O=C(C[n+]1cc(-c2ccc(Cl)c(Cl)c2)n2c1CCC2)N1c2ccccc2Sc2ccccc21.[Cl-],5.98
15,O=C1[C@H]2[C@@H](c3ccc(Cl)cc3)N3C(=O)N(c4cccc(Cl)c4)C(=O)[C@@]3(Cc3ccccc3)[C@H]2C(=O)N1C1CCCCC1,6.74
16,c1ccc(C2=NNC(c3ccco3)=Nc3ccccc32)cc1,9.69
17,O=C(CSc1nnc(-c2ccncc2)o1)NCc1ccccc1,0.359
18,Cn1c(N)c(C(=O)COC(=O)C(Cc2ccccc2)NC(=O)c2ccccc2)c(=O)n(C)c1=O (stereo not drawn),-4.58
19,COc1ccc(CNC(=O)COC(=O)c2[nH]c(C)c(C(C)=O)c2C)cc1OC,2.77
20,CC1CCCN(C(=O)CCc2nnc(-c3ccc4c(c3)OCO4)o2)C1 (stereo not drawn),6.5
21,N#CCCN(Cc1cccnc1)C(=O)Nc1ccc(Cl)c(Cl)c1,-0.824
22,O=C(CN(C(=O)CCC(=O)Nc1nccs1)c1cccc(F)c1)NCCc1ccccc1,-15.9

row,SMILES,"hERG current change (%, negative = inhibition) at 1uM [%]"
1,COc1ccc(S(=O)(=O)Cc2ccc(C(=O)NCc3ccc(C)cc3)o2)cc1,12.9
2,CCOc1ccc(S(=O)(=O)n2nnc3ccccc32)cc1C,7.15
3,Nc1cc(=O)[nH]c(SCC(=O)Nc2ccc(Cl)c(Cl)c2)n1,1.55
4,COc1cc(C)c(C(C)C)cc1S(=O)(=O)n1cnc(C)c1,6.84
5,COC(=O)c1cc2oc3ccccc3c2n1Cc1ccccn1,9.25
6,COC(=O)C1CCN(C(=O)CN(C)Cc2ccc(C(C)(C)C)cc2)CC1,10.1
7,Cc1cc(N2CCN(S(=O)(=O)c3ccc(Br)cc3)CC2)n2ncnc2n1,-84.8
8,Cc1ccc(C)c(C(=O)CN2C(=O)c3ccccc3C2=O)c1,13.1
9,O=C(CCc1nc2ccccc2n1-c1ccccc1)NCCO,7.34
10,COC(=O)c1sc(=S)n(Cc2ccccc2)c1C,12
11,Br.O=C(N/N=C/c1sc(N2CCOCC2)nc1-c1ccccc1)c1cccc(S(=O)(=O)N2CCOCC2)c1,7.08
12,CC(C)N1C(=O)c2ccccc2C1C(=O)NCCc1ccccc1 (stereo not drawn),10.6
13,CC(C)NC(=O)CSc1nnc2sc3ccccc3n12,-7.72
14,COc1ccc(CCN(C)Cc2cccc3ccccc23)cc1OC,-43.6
15,COc1ccc(C2NC(=S)NC(C)=C2C(=O)Nc2ccccn2)cc1OC (stereo not drawn),17.1
16,CCN(CC)c1nc(-c2ccccc2)nc2c1sc(=S)n2CC,5.95
17,Cc1cc(NC(=O)CN2CCN(S(=O)(=O)c3ccc4ccccc4c3)CC2)no1,3.85
18,CN(Cc1ccccc1)c1nc(N)nc(Cl)c1C=O,5.4
19,CCCCC1CCC(C(=O)OCC(=O)Nc2ccc(S(N)(=O)=O)cc2)CC1 (stereo not drawn),8.33
20,Nc1cc(-c2ccco2)no1,-0.355
21,CCN(CC)CCOC(=O)/C=C/c1ccccc1OC.Cl,9.1
22,O=C(CSC(=S)N1CCCC1)c1ccccc1,0.497

row,SMILES,"hERG current change (%, negative = inhibition) at 1uM [%]"
1,O=[N+]([O-])c1cc(S(=O)(=O)NC2=NCCCCC2)ccc1Cl,16
2,O=c1[nH]c(=S)n(-c2ccccc2F)c(O)c1C=Nc1ccc(N2CCOCC2)cc1,11.3
3,COc1ccc(C)cc1S(=O)(=O)NC1CCCCC1C (stereo not drawn),3.41
4,Cc1ccc(CNC(=O)c2ccc(Cn3nc(C)cc3C)o2)cc1,-10.9
5,COc1ccc(C)cc1NC(=O)Cc1c(C(=O)O)n(C)c2ccccc12,17.6
6,CC(Nc1nc(C(F)(F)F)nc2ccccc12)c1cccs1 (stereo not drawn),14.5
7,COc1ccccc1N(CC(=O)NC(C)(C)C)C(=O)C1CSC(=O)C1 (stereo not drawn),20.6
8,COCCNC(=O)COc1ccc(C)c(C)c1,0.248
9,CC(C)c1ccc(N(CC(=O)N/N=C/c2ccc(OC3CSC3)cc2)S(=O)(=O)c2ccccc2)cc1,6.7
10,Cc1cccc(NC(=O)Cn2c(=O)n(CCc3c[nH]c4ccccc34)c(=O)c3cccnc32)c1,14.6
11,Cc1cc(N2CCC(C)CC2)c(F)cc1[N+](=O)[O-],-2.8
12,CCOc1ccccc1NC(=O)CSc1ccc(-c2ccco2)nn1,9.91
13,O=C(NNC(=S)Nc1ccc(Br)cc1)c1cccnc1,8.63
14,O=C(CSc1cccc2cccnc12)N/N=C/c1ccc(O)cc1,-13.2
15,Cc1ccc(CNC(=O)CCCNC(=O)c2ccc(Cl)cc2)n1C,10.7
16,CC(C)N1CCN(c2ccc(OC[C@H]3CO[C@](Cn4cncn4)(c4ccc(Cl)cc4Cl)O3)cc2)CC1,6.93
17,O=C(Nc1ccc(NC(=O)C23CC4CC(CC(C4)C2)C3)cn1)c1ccco1,12.1
18,CCOC(=O)N1CCN(C(=O)COc2cccc3c2CCN(Cc2ccccc2F)C3=O)CC1,-11.9
19,COC(=O)C[C@H]1c2cc(F)cc(F)c2S(=O)(=O)N1C1CCN(Cc2ccccc2)CC1,-9.69
20,CCOC(=O)CSc1nnc(CNC(=O)c2ccc([N+](=O)[O-])cc2)n1C,3.61
21,Cc1cc(C(=O)NC(C)C)on1,13.3
